In assay [1] the target is PEN1-YFP^C (Arabidopsis thaliana) (UniProt Q9ZSD4). The assay is described as follows: split reporter; BiFC with YFP^N and YFP^C fusions co-infiltrated by Agrobacterium GV3101 into N. benthamiana leaves; YFP fluorescence by confocal microscopy after 48 hr.
The target of assay [2] is T1, VAMP721-YFP^C (Arabidopsis thaliana) (UniProt Q9ZTW3).
T1 sequence: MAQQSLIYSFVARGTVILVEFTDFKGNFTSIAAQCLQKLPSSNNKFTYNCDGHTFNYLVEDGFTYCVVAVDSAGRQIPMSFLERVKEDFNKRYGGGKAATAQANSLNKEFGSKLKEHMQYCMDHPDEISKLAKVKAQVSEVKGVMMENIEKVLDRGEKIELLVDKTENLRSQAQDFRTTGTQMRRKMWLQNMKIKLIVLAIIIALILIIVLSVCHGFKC
Described as above.

By UniProt entry, the sequences of proteins in these tests, tags left out.
UniProt Q9ZSD4: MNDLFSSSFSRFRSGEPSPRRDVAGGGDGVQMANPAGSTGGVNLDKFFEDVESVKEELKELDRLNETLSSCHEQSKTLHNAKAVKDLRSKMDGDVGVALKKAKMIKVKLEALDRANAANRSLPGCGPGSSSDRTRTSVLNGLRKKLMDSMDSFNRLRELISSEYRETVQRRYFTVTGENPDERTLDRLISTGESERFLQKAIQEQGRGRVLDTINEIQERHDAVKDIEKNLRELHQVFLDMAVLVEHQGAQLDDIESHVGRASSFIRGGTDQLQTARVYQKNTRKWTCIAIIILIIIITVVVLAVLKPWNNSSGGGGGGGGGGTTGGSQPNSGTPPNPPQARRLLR

The target of assay [3] is T2, SNAP33-YFP^C (Arabidopsis thaliana) (UniProt Q9S7P9).
T2 sequence: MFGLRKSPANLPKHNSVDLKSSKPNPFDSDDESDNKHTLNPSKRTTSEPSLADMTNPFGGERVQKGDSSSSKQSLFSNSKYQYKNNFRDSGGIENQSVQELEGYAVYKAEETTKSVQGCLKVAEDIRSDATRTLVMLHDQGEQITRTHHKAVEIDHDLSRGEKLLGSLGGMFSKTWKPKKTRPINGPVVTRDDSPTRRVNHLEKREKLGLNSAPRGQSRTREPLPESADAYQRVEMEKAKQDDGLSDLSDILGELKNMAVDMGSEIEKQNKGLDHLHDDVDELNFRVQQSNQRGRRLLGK
Described as above.

Assay [4] deals with T3, SNAP33-Myc (Arabidopsis thaliana) (UniProt Q9S7P9).
T3 sequence: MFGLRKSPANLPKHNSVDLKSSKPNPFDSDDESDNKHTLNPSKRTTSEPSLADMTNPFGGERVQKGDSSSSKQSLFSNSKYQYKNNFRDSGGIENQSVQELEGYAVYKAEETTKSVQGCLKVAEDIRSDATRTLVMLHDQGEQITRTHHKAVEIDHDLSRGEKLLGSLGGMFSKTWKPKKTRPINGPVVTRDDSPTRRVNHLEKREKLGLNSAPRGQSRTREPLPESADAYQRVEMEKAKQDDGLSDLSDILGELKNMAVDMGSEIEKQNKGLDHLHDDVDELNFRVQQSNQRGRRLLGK
The experiment in a line: co-IP; transient co-expression in N. benthamiana leaves; total protein in NB1 buffer; immunoprecipitation with anti-Myc or anti-HA antibody and protein G agarose at 4 °C; washed 4 times with PBS; immunoblot.

The target in assay [5] is PEN1-HA (Arabidopsis thaliana) (UniProt Q9ZSD4). Described as above.
In assay [6] the target is T4, SNAP33-HA (Arabidopsis thaliana) (UniProt Q9S7P9).
T4 sequence: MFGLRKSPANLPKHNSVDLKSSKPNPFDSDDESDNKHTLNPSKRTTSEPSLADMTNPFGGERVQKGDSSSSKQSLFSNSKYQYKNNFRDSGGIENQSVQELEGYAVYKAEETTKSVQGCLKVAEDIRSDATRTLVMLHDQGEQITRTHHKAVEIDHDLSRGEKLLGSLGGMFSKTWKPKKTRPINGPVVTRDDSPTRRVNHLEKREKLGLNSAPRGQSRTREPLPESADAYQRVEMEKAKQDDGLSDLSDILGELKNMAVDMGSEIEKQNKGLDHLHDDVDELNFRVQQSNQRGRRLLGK
The experiment in a line: co-IP; stably transformed Arabidopsis expressing EXO70B1-GFP and SNAP33-HA under native promoters; total protein from 3-week-old plants; immunoprecipitation with anti-HA antibody; immunoblot with GFP antibody. (In general: Immunoblotting shows a protein as a band on a membrane.)

The target in assay [7] is T5, EXO70B1-pGBKT7 (Arabidopsis thaliana) (UniProt Q9FGH9).
T5 sequence: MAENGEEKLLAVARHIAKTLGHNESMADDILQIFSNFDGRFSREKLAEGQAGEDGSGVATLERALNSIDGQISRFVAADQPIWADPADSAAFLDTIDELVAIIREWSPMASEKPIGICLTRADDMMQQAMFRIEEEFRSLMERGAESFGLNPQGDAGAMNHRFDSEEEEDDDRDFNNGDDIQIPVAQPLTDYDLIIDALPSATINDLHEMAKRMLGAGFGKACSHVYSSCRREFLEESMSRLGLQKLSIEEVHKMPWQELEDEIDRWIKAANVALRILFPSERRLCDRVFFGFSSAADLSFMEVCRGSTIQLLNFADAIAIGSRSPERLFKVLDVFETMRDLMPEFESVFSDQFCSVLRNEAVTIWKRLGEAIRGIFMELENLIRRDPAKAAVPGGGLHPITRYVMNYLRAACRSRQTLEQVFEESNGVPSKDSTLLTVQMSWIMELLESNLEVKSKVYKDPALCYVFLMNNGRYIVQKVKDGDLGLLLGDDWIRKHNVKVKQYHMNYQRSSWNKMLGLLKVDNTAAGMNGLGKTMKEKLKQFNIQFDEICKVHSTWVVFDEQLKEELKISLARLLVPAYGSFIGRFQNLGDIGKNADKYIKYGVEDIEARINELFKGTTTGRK
The experiment in a line: two-hybrid; … GAL4 Two-Hybrid System 3; EXO70B1-pGBKT7 as bait, preys in pGADT7; S. cerevisiae AH109; growth on SD/-Ade/-His/-Leu/-Trp at 28°C.

Data on six molecules can be found in article PMC4305288.

Results are given in words; binding and its absence hold for the method and conditions named. For part of these data: In cells and extracts the contact can be indirect. Some entries that bind do so weakly or less than the wild type. Tags and fused reporters may be left off the sequences shown.

B1: EXO70B1-YFP^N (protein, UniProt Q9FGH9 1-624)
chain: MAENGEEKLLAVARHIAKTLGHNESMADDILQIFSNFDGRFSREKLAEGQAGEDGSGVATLERALNSIDGQISRFVAADQPIWADPADSAAFLDTIDELVAIIREWSPMASEKPIGICLTRADDMMQQAMFRIEEEFRSLMERGAESFGLNPQGDAGAMNHRFDSEEEEDDDRDFNNGDDIQIPVAQPLTDYDLIIDALPSATINDLHEMAKRMLGAGFGKACSHVYSSCRREFLEESMSRLGLQKLSIEEVHKMPWQELEDEIDRWIKAANVALRILFPSERRLCDRVFFGFSSAADLSFMEVCRGSTIQLLNFADAIAIGSRSPERLFKVLDVFETMRDLMPEFESVFSDQFCSVLRNEAVTIWKRLGEAIRGIFMELENLIRRDPAKAAVPGGGLHPITRYVMNYLRAACRSRQTLEQVFEESNGVPSKDSTLLTVQMSWIMELLESNLEVKSKVYKDPALCYVFLMNNGRYIVQKVKDGDLGLLLGDDWIRKHNVKVKQYHMNYQRSSWNKMLGLLKVDNTAAGMNGLGKTMKEKLKQFNIQFDEICKVHSTWVVFDEQLKEELKISLARLLVPAYGSFIGRFQNLGDIGKNADKYIKYGVEDIEARINELFKGTTTGRK
Take B1: the binding result is recorded as “no binding” in assay [1], “no binding” in assay [2] and “binds” in assay [3].

B2: EXO70B1-GFP (EXO70B1pro:EXO70B1-GFP, in N. benthamiana) (protein, UniProt Q9FGH9 1-624)
chain: MAENGEEKLLAVARHIAKTLGHNESMADDILQIFSNFDGRFSREKLAEGQAGEDGSGVATLERALNSIDGQISRFVAADQPIWADPADSAAFLDTIDELVAIIREWSPMASEKPIGICLTRADDMMQQAMFRIEEEFRSLMERGAESFGLNPQGDAGAMNHRFDSEEEEDDDRDFNNGDDIQIPVAQPLTDYDLIIDALPSATINDLHEMAKRMLGAGFGKACSHVYSSCRREFLEESMSRLGLQKLSIEEVHKMPWQELEDEIDRWIKAANVALRILFPSERRLCDRVFFGFSSAADLSFMEVCRGSTIQLLNFADAIAIGSRSPERLFKVLDVFETMRDLMPEFESVFSDQFCSVLRNEAVTIWKRLGEAIRGIFMELENLIRRDPAKAAVPGGGLHPITRYVMNYLRAACRSRQTLEQVFEESNGVPSKDSTLLTVQMSWIMELLESNLEVKSKVYKDPALCYVFLMNNGRYIVQKVKDGDLGLLLGDDWIRKHNVKVKQYHMNYQRSSWNKMLGLLKVDNTAAGMNGLGKTMKEKLKQFNIQFDEICKVHSTWVVFDEQLKEELKISLARLLVPAYGSFIGRFQNLGDIGKNADKYIKYGVEDIEARINELFKGTTTGRK
On to B2, for which the binding entry in assay [4] is “binds”; in assay [5], “no binding”.

B3: EXO70B1-GFP (EXO70B1pro:EXO70B1-GFP, in transgenic Arabidopsis) (protein, UniProt Q9FGH9 1-624)
chain: MAENGEEKLLAVARHIAKTLGHNESMADDILQIFSNFDGRFSREKLAEGQAGEDGSGVATLERALNSIDGQISRFVAADQPIWADPADSAAFLDTIDELVAIIREWSPMASEKPIGICLTRADDMMQQAMFRIEEEFRSLMERGAESFGLNPQGDAGAMNHRFDSEEEEDDDRDFNNGDDIQIPVAQPLTDYDLIIDALPSATINDLHEMAKRMLGAGFGKACSHVYSSCRREFLEESMSRLGLQKLSIEEVHKMPWQELEDEIDRWIKAANVALRILFPSERRLCDRVFFGFSSAADLSFMEVCRGSTIQLLNFADAIAIGSRSPERLFKVLDVFETMRDLMPEFESVFSDQFCSVLRNEAVTIWKRLGEAIRGIFMELENLIRRDPAKAAVPGGGLHPITRYVMNYLRAACRSRQTLEQVFEESNGVPSKDSTLLTVQMSWIMELLESNLEVKSKVYKDPALCYVFLMNNGRYIVQKVKDGDLGLLLGDDWIRKHNVKVKQYHMNYQRSSWNKMLGLLKVDNTAAGMNGLGKTMKEKLKQFNIQFDEICKVHSTWVVFDEQLKEELKISLARLLVPAYGSFIGRFQNLGDIGKNADKYIKYGVEDIEARINELFKGTTTGRK
In the case of B3, in assay [6], the binding result is given as “binds”.

B4: SNAP33 fused with pGADT7 (protein, UniProt Q9S7P9 1-300)
chain: MFGLRKSPANLPKHNSVDLKSSKPNPFDSDDESDNKHTLNPSKRTTSEPSLADMTNPFGGERVQKGDSSSSKQSLFSNSKYQYKNNFRDSGGIENQSVQELEGYAVYKAEETTKSVQGCLKVAEDIRSDATRTLVMLHDQGEQITRTHHKAVEIDHDLSRGEKLLGSLGGMFSKTWKPKKTRPINGPVVTRDDSPTRRVNHLEKREKLGLNSAPRGQSRTREPLPESADAYQRVEMEKAKQDDGLSDLSDILGELKNMAVDMGSEIEKQNKGLDHLHDDVDELNFRVQQSNQRGRRLLGK
In the case of B4, the binding entry in assay [7] is listed as “binds”.

B5: SEC5a fused with pGADT7 (protein, UniProt Q8S3U9 1-1090)
chain: MSSDSNDLDEDELLQMALKEQAKRDLTYQKPPSSSARKPVANLVQQPRQQKPVAAAAAPPKKSAAAVRKPSMDEDEESEVELLSISSGDDDLEREREIGGSSGGAGRGRGSDVREKGRARKEDDGAWDGGEPDCWKRVNEAELARRVRDMRESRTAPVVQKVEGKAPAPGKKVALTSLQSLPRGMECIDPLKLGIIDNKTLRLITESSGSPSKAEKVDNTLREKLVYFSDHFDPKLFLSRIHQDTTAADLEAGALGLKSDLKGRNLQRKQLVKDNFDCFVSCKTTIDDIESKLKRIEEDPEGSGTTHLFNCMKSVTSRANLAFEPLFERQAQAEKIRSVQGMLQRFRTLFNLPSIIRSSISKGEYDLAVREYKKAKSIALPSHVNILKRVLEEVEKVMLEFKGTLYKSMEDPKIDFTSLENTVRLLLELEPESDPVWHYLNVQNHRIHGLLEKCTYDHEARVEILRNDTHEKAISDAKWQQIQQNGVSYSDTASSNENNAVQVDLQSVEFPSEEIDILKGRYIKRLTAVLVHHIPVFWKTAISIFSGKFAKSSQVTDTSANKAEEKVTEARYSTHSLEEVAGMIRKTISVYEAKVNSTFCDFDESCILRPFMSDAINEVSKACQAFEAKESTPHSAVVALRKIQAEITKIYIQRLCSWMRASTEGISKEETWIPVSILERNRSPYAISYLPLAFRSVIVSGMEQVNLMILSVKSEAAKSEDMFAQIEEIIISVRLAFLNCFLDFAAHLEQIGADLSQSTSRQDNWKNGYSDEHQEEPSANTYGSVIDPHRRLLMVLSNIGYCKDELASELYNKFKYTWLQSRDKNEDSSDLQDLIMSFSGLGEKVLEHYTFAKANLIRTAATNYLLDSGIQWGSAPQVKGIRDAAVELLHTLVAVHAEVFAGAKPLLDKILGVLIEGLIDTFLSVVEENRSSDLRSIDANGFCQLMFELEYFETVLYSYFTSAATESLKSLQGTVLEIAIESISEAVETPGHNRRPTRGSEDTVSDDKQSVSADDLLALTKQCSNELLQQELERTRVNTACFAESAPLESTPPLPKATYSSFRGSMDSPSRNYRGSQSSGSPINARPRRR
On to B5, for which, in assay [7], the binding entry is “binds”.

B6: SEC15b fused with pGADT7 (protein, UniProt F4JHH5 1-787)
chain: MQSSKGRRKVGSTTAGAGIDSAEKLDELLISSAICNGEDLGPFVRKTFGTGKPETLLHHLKFFARSKESEIEEVCKAHYQDFIHAVDDLKSLLSDVESLKSALSDSNSKLQSVAAPLLSSLDSLVEAQTVSKNVDLAIGAVTHCVRVMELVSRANQHLQSGNFYMALKCVDSIESDFMEKTPSSTLKRMLENRIPAIRSYVERKVNKEFGDWLVEIRVVSRNLGQLAIGEASAARQREEELRIKQRQAEEQSRLSLRDCVYALNEEEDDEFGSGHEGSDGGSSGGGLLGFDLTPLYRAYHIHQTLSLGDTFKQYYYNNRDLQLTSDFQIAGFFIVEDRVLRTGGGLISKLEVETLWDTAVTKMCAVLEDQFSRMQTANHLLLIKDYVSLLGVSLRRYGYAVDSLLEVLSKHRDKYHELLLSDCRKQITEALSADKFEQMLMKKEYEYSMNVLSFQLQTSEIVPAFPFIAPFSTTVPDCCRIVRSFIEDSVSFMSHGGQLDFYDVVKKYLDRLLGEVLDEALLKLISTSVHGVSQAMQVAANMAVFERACDFFFRHAAHLSGVPLRMAERGRRHFPLTKSQNTAEDTLSGMLKKKIDGFMTLLENVNWTSDDIPQGGNEYMNEVLIYLETLVSTAQQILPAKVLKRVLRDVLAHISEKIVGTLCGDLVKRLSMAAIKGLDVDIQLLDSFTENLTPLLTDKEAREMKKAFVEIRQMINLLLSSHPENFVNPVIRERSYNALDYRKVATVSEKFRDPSDSIFGTFGTRGSRQNPKNKSLDALIKRLKDVS
Turning to B6, the binding entry in assay [7] was “binds”.
